In experiment [1] the test system is HSkMC (human skeletal muscle cells). The experiment in a line: cytotoxicity call (relative viability < 0.9). The conditions noted are these: 10 µM.
Experiment [2] concerns HepG2. Briefly: cytotoxicity call (relative viability < 0.9). Conditions: 10 µM.
Experiment [3] concerns S. aureus RN4220. The experiment in a line: growth inhibition call (relative growth <= 0.2). Conditions: 50 µM.

The list shows a part of the results.

On to `Cc1noc(C)c1S(=O)(=O)N(C)C[C@@H]1Oc2ccc(NC(=O)NC(C)C)cc2CC(=O)N([C@@H](C)CO)C[C@@H]1C`, for which the cytotoxicity call in experiment [1] and in experiment [2] was “inactive” throughout. For the same compound, in experiment [3], the growth inhibition call is “inactive”.
Consider `CCS(=O)(=O)Nc1ccc2c(c1)C(=O)N(C)[C@H]1CC[C@H](CC(=O)N3CCN(C)CC3)O[C@@H]1CO2`, for which the cytotoxicity call in experiment [1] and in experiment [2] was “inactive” in each case. Moreover, the growth inhibition call in experiment [3] was “inactive”.
`COc1ccccc1S(=O)(=O)N[C@H]1CC[C@@H](CCNC(=O)C2CCOCC2)O[C@H]1CO`: the cytotoxicity call in experiment [1] and in experiment [2] was “inactive” each time. Further, the growth inhibition call in experiment [3] is “inactive”.
With `CC(C)NC(=O)Nc1cccc2c1O[C@H](CN(C)Cc1ccc3c(c1)OCO3)[C@H](C)CN([C@H](C)CO)C2=O`, the cytotoxicity call in experiment [1] and in experiment [2] was “inactive” each time. In addition, the growth inhibition call in experiment [3] is “inactive”.
On to `COc1ccc(NC(=O)Nc2ccc3c(c2)CC(=O)N([C@@H](C)CO)C[C@H](C)[C@H](CN(C)Cc2ccc(C(F)(F)F)cc2)O3)cc1`, for which the cytotoxicity call in experiment [1] and in experiment [2] was “active” throughout. Also, the growth inhibition call in experiment [3] is “inactive”.
Regarding `Cc1noc(C)c1NC(=O)N(C)C[C@@H]1Oc2ccc(NC(=O)Nc3cccc4ccccc34)cc2C(=O)N([C@@H](C)CO)C[C@@H]1C`, the cytotoxicity call in experiment [1] and in experiment [2] was “inactive” throughout. In addition, the growth inhibition call in experiment [3] is “inactive”.
On to `Cc1noc(C)c1S(=O)(=O)N(C)C[C@H]1OCCCC[C@@H](C)Oc2ccc(NC(=O)Nc3ccc(F)cc3)cc2C(=O)N([C@@H](C)CO)C[C@@H]1C`, for which the cytotoxicity call in experiment [1] and in experiment [2] was “inactive” each time. Moreover, the growth inhibition call in experiment [3] is “inactive”.
As for `CCNC(=O)C[C@H]1CC[C@@H](NC(=O)C2CCOCC2)[C@@H](CO)O1`, the cytotoxicity call in experiment [1] and in experiment [2] was “inactive” in each case. The growth inhibition call in experiment [3] is “inactive”.
For the compound `CO[C@@H]1CN(C)C(=O)c2cc(NS(C)(=O)=O)ccc2OC[C@@H](C)N(C(=O)CN(C)C)C[C@@H]1C`, the cytotoxicity call in experiment [1] and in experiment [2] was “inactive” each time. The growth inhibition call in experiment [3] is “inactive”.

Values taken from the antibiotic and cytotoxicity screens of Wong et al. (2023).
